# Test results reported in the supplement of paper PMC10037445.
# In all, about 2,900 compounds were measured (“IRF Lucia reporter activity, fold change vs agonist alone”: median about 0.9, highest 2% from about 2.8 on). This is one part of the list.
# How the values were obtained:
# RAW-Dual [1] = assay: IRF Lucia reporter activity, fold change vs agonist alone; higher = enhanced IRF activity; settings: agonist: MPLA (TLR4) […]
# Summary of the method: (§1)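 RAW-Dual macrophages were seeded in DMEM at 50,000 cells/well in 384-well plates, given 50 nL of library stock by pin tool, and given a PRR agonist 1 h later. Plates were held at 37 °C, 5% CO2 for 20 hours, after which supernatant was read for IRF by QuantiLuc luminescence and for NF-κB by QuantiBlue absorbance at 620 nm. Reporter activity is expressed as fold change over wells that received agonist alone. A well was called cytotoxic when IncuCyte confluency fell below 70% of agonist controls in both mask sets.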
# RAW-Dual [2] = assay: IRF Lucia reporter activity, fold change vs agonist alone; cytotoxicity flag (confluency mask): not cytotoxic; higher = enhanced IRF activity
# Summary of the method: as §1
# RAW-Dual [3] = assay: IRF Lucia reporter activity, fold change vs agonist alone; cytotoxicity flag (confluency mask): cytotoxic (confluency <70% of control); higher = enhanced IRF activity
# Summary of the method: as §1
# [4] = library stock concentration (final ~1000-fold dilution): 10 mM, cytotoxicity flag (confluency mask): not cytotoxic
# [5] = agonist: 3'3'-cGAMP (STING) 10 ug/mL
# [6] = library stock concentration (final ~1000-fold dilution): 10 mM water, cytotoxicity flag (confluency mask): not cytotoxic
structure (smiles),measurement,setting,value
COC(=O)NC(C(=O)N1CCCC1c1ncc(-c2ccc(-c3ccc(-c4cnc(C5CCCN5C(=O)C(NC(=O)OC)C(C)C)[nH]4)cc3)cc2)[nH]1)C(C)C.Cl.Cl (centres undefined),IRF Lucia reporter activity,RAW-Dual [1]; [4],5.97
COC(=O)NC(C(=O)N1CCCC1c1ncc(-c2ccc(-c3ccc(-c4cnc(C5CCCN5C(=O)C(NC(=O)OC)C(C)C)[nH]4)cc3)cc2)[nH]1)C(C)C.Cl.Cl (centres undefined) (library stock concentration (final ~1000-fold dilution): 10 mM),IRF Lucia reporter activity,RAW-Dual [2]; [5],0.948
same,IRF Lucia reporter activity,RAW-Dual [2]; agonist: LPS (TLR4) 0.1 ug/mL,7.56
CC(C)NCC(O)COc1cccc2[nH]ccc12 (centres undefined) (library stock concentration (final ~1000-fold dilution): 10 mM),IRF Lucia reporter activity,RAW-Dual [2]; [5],1.09
same,IRF Lucia reporter activity,RAW-Dual [2]; agonist: LPS (TLR4) 0.1 ug/mL,1.35
CC(C)NCC(O)COc1cccc2[nH]ccc12 (centres undefined),IRF Lucia reporter activity,RAW-Dual [1]; [4],1.18
COc1cccc(C(N)=O)c1 (library stock concentration (final ~1000-fold dilution): 10 mM),IRF Lucia reporter activity,RAW-Dual [2]; [5],1.02
same,IRF Lucia reporter activity,RAW-Dual [2]; agonist: LPS (TLR4) 0.1 ug/mL,1.22
COc1cccc(C(N)=O)c1,IRF Lucia reporter activity,RAW-Dual [1]; [4],1.02
Nc1ccn(CC(CO)OCP(=O)(O)O)c(=O)n1 (centres undefined) (library stock concentration (final ~1000-fold dilution): 10 mM water),IRF Lucia reporter activity,RAW-Dual [2]; [5],0.847
same,IRF Lucia reporter activity,RAW-Dual [2]; agonist: LPS (TLR4) 0.1 ug/mL,0.826
Nc1ccn(CC(CO)OCP(=O)(O)O)c(=O)n1 (centres undefined),IRF Lucia reporter activity,RAW-Dual [1]; [6],1.26
CC1COC2=C1C(=O)C(=O)c1c2ccc2c1CCCC2(C)C (centres undefined) (library stock concentration (final ~1000-fold dilution): 10 mM),IRF Lucia reporter activity,RAW-Dual [2]; [5],0.339
same,IRF Lucia reporter activity,RAW-Dual [2]; agonist: LPS (TLR4) 0.1 ug/mL,0.395
CC1COC2=C1C(=O)C(=O)c1c2ccc2c1CCCC2(C)C (centres undefined),IRF Lucia reporter activity,RAW-Dual [1]; [4],0.44
CC/C(=C(\c1ccc(O)cc1)c1ccc(OCCNC)cc1)c1ccccc1.Cl (library stock concentration (final ~1000-fold dilution): 10 mM),IRF Lucia reporter activity,RAW-Dual [3]; [5],0.216
same,IRF Lucia reporter activity,RAW-Dual [3]; agonist: LPS (TLR4) 0.1 ug/mL,0.154
COc1cc(F)c(C(C)C)cc1-c1ccc(C(F)(F)F)cc1CN1C(=O)OC(c2cc(C(F)(F)F)cc(C(F)(F)F)c2)C1C (centres undefined),IRF Lucia reporter activity,RAW-Dual [1]; [4],1.1
COc1cc(F)c(C(C)C)cc1-c1ccc(C(F)(F)F)cc1CN1C(=O)OC(c2cc(C(F)(F)F)cc(C(F)(F)F)c2)C1C (centres undefined) (library stock concentration (final ~1000-fold dilution): 10 mM),IRF Lucia reporter activity,RAW-Dual [2]; [5],1.12
same,IRF Lucia reporter activity,RAW-Dual [2]; agonist: LPS (TLR4) 0.1 ug/mL,1.14
N=C(N)NCCCCC(N)C(=O)O (centres undefined) (library stock concentration (final ~1000-fold dilution): 10 mM water),IRF Lucia reporter activity,RAW-Dual [2]; [5],1.14
same,IRF Lucia reporter activity,RAW-Dual [2]; agonist: LPS (TLR4) 0.1 ug/mL,0.88
N=C(N)NCCCCC(N)C(=O)O (centres undefined),IRF Lucia reporter activity,RAW-Dual [1]; [6],1.25
CC(C)C(=O)c1c(C(C)C)nn2ccccc12 (library stock concentration (final ~1000-fold dilution): 10 mM),IRF Lucia reporter activity,RAW-Dual [2]; [5],0.861
same,IRF Lucia reporter activity,RAW-Dual [2]; agonist: LPS (TLR4) 0.1 ug/mL,1.03
CC(C)C(=O)c1c(C(C)C)nn2ccccc12,IRF Lucia reporter activity,RAW-Dual [1]; [4],1.04
Nc1nc(N)c2nc(-c3ccccc3)c(N)nc2n1 (library stock concentration (final ~1000-fold dilution): 10 mM),IRF Lucia reporter activity,RAW-Dual [2]; [5],0.772
same,IRF Lucia reporter activity,RAW-Dual [2]; agonist: LPS (TLR4) 0.1 ug/mL,1.19
Nc1nc(N)c2nc(-c3ccccc3)c(N)nc2n1,IRF Lucia reporter activity,RAW-Dual [1]; [4],1.06
CCO.N#CC(=C(\N)Sc1ccccc1N)/C(C#N)=C(/N)Sc1ccccc1N (library stock concentration (final ~1000-fold dilution): 10 mM),IRF Lucia reporter activity,RAW-Dual [2]; [5],0.574
same,IRF Lucia reporter activity,RAW-Dual [2]; agonist: LPS (TLR4) 0.1 ug/mL,2.43
CCO.N#CC(=C(\N)Sc1ccccc1N)/C(C#N)=C(/N)Sc1ccccc1N,IRF Lucia reporter activity,RAW-Dual [1]; [4],2.65
Brc1ccc2[nH]ccc2c1,IRF Lucia reporter activity,RAW-Dual [1]; [4],1.34
Brc1ccc2[nH]ccc2c1 (library stock concentration (final ~1000-fold dilution): 10 mM),IRF Lucia reporter activity,RAW-Dual [2]; [5],0.947
same,IRF Lucia reporter activity,RAW-Dual [2]; agonist: LPS (TLR4) 0.1 ug/mL,1.72
COc1ccc(CCC(=O)c2c(O)cc(O[C@@H]3O[C@H](CO)[C@@H](O)[C@H](O)[C@H]3O[C@@H]3O[C@@H](C)[C@H](O)[C@@H](O)[C@H]3O)cc2O)cc1O (library stock concentration (final ~1000-fold dilution): 10 mM),IRF Lucia reporter activity,RAW-Dual [2]; [5],0.994
same,IRF Lucia reporter activity,RAW-Dual [2]; agonist: LPS (TLR4) 0.1 ug/mL,1.08
CC(C)(C)CC(C)(C)c1ccc(OCCOCC[N+](C)(C)Cc2ccccc2)cc1 (library stock concentration (final ~1000-fold dilution): 10 mM),IRF Lucia reporter activity,RAW-Dual [3]; [5],0.298
same,IRF Lucia reporter activity,RAW-Dual [3]; agonist: LPS (TLR4) 0.1 ug/mL,1.17
CC(C)(C)CC(C)(C)c1ccc(OCCOCC[N+](C)(C)Cc2ccccc2)cc1,IRF Lucia reporter activity,"RAW-Dual [1]; library stock concentration (final ~1000-fold dilution): 10 mM, cytotoxicity flag (confluency mask): cytotoxic (confluency <70% of control)",1.66
O=C(O)c1cc(I)ccc1NC(=O)C(Cc1ccccc1)NCc1ccccc1 (centres undefined),IRF Lucia reporter activity,RAW-Dual [1]; [4],1.05
O=C(O)c1cc(I)ccc1NC(=O)C(Cc1ccccc1)NCc1ccccc1 (centres undefined) (library stock concentration (final ~1000-fold dilution): 10 mM),IRF Lucia reporter activity,RAW-Dual [2]; [5],1.17
same,IRF Lucia reporter activity,RAW-Dual [2]; agonist: LPS (TLR4) 0.1 ug/mL,1.41
CC(C(=O)Nc1cccc(N=Cc2c(O)ccc3ccccc23)c1)c1ccccc1 (centres undefined) (library stock concentration (final ~1000-fold dilution): 10 mM),IRF Lucia reporter activity,RAW-Dual [2]; [5],0.0926
same,IRF Lucia reporter activity,RAW-Dual [2]; agonist: LPS (TLR4) 0.1 ug/mL,1.6
Cc1cc2c(C(=O)NCC(C)c3ccccc3)c(O)c(O)cc2c(O)c1-c1c(C)cc2c(C(=O)NCC(C)c3ccccc3)c(O)c(O)cc2c1O (centres undefined) (library stock concentration (final ~1000-fold dilution): 10 mM),IRF Lucia reporter activity,RAW-Dual [2]; [5],0.11
same,IRF Lucia reporter activity,RAW-Dual [2]; agonist: LPS (TLR4) 0.1 ug/mL,0.993
COc1ccc(CCC(=O)Nc2nc3ccc(Cl)cc3s2)cc1OC,IRF Lucia reporter activity,RAW-Dual [1]; [4],1.09
COc1ccc(CCC(=O)Nc2nc3ccc(Cl)cc3s2)cc1OC (library stock concentration (final ~1000-fold dilution): 10 mM),IRF Lucia reporter activity,RAW-Dual [2]; [5],1.06
same,IRF Lucia reporter activity,RAW-Dual [2]; agonist: LPS (TLR4) 0.1 ug/mL,1.04
CCN(CC)CCOCCOC(=O)C1(c2ccccc2)CCCC1,IRF Lucia reporter activity,RAW-Dual [1]; [4],1.08
CCN(CC)CCOCCOC(=O)C1(c2ccccc2)CCCC1 (library stock concentration (final ~1000-fold dilution): 10 mM),IRF Lucia reporter activity,RAW-Dual [2]; [5],0.82
same,IRF Lucia reporter activity,RAW-Dual [2]; agonist: LPS (TLR4) 0.1 ug/mL,1.24
CCN(CC)C(=O)C1(c2ccccc2)CC1CN (centres undefined),IRF Lucia reporter activity,RAW-Dual [1]; [4],1.02
CCN(CC)C(=O)C1(c2ccccc2)CC1CN (centres undefined) (library stock concentration (final ~1000-fold dilution): 10 mM),IRF Lucia reporter activity,RAW-Dual [2]; [5],1.04
same,IRF Lucia reporter activity,RAW-Dual [2]; agonist: LPS (TLR4) 0.1 ug/mL,0.8
CCC(C)C(=O)OC1CC(C)C=C2C=CC(C)C(CCC3CC(O)CC(=O)O3)C21 (centres undefined),IRF Lucia reporter activity,RAW-Dual [1]; [4],0.744
CCC(C)C(=O)OC1CC(C)C=C2C=CC(C)C(CCC3CC(O)CC(=O)O3)C21 (centres undefined) (library stock concentration (final ~1000-fold dilution): 10 mM),IRF Lucia reporter activity,RAW-Dual [2]; [5],0.497
same,IRF Lucia reporter activity,RAW-Dual [2]; agonist: LPS (TLR4) 0.1 ug/mL,0.764
